Experimental data taken from paper PMC12136788.
This is one part of the list.

T1: UNK ZnF1-3 (human, UniProt Q9C0B0 31-174)
T1 sequence: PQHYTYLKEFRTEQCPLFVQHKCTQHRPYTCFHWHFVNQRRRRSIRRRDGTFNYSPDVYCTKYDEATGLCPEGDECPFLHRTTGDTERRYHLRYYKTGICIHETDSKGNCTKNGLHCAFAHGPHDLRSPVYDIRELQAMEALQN

B1: chr22:19452774:19452775:-_ENSG00000070010_ENST00000399523|hu_hu|hu_hu_hu_mus_False|58_98 (ssRNA)
RNA: GGGAGUUCUACAGUCCGACGAUCCUUCUCAUUGUAGUUGAUGGCAAUCACAUCUCCAGUCGUCAGACAGGCGAAGUUCCUAAGUGCAUUUUCUAAUACCGCUUUAGGGUUGGUAAUAUCCAGGAAGUCUGGGCUCUGAGGCUGCAACAGAGGAUUGAGCAUCA
B2: 30680257_30680466_1086_3pUTR_ENSG00000156860_ENST00000287468|human|control|control (ssRNA)
RNA: GGGAGUUCUACAGUCCGACGAUCGAGGCCCCUCCUCACCAGCCCGGGCCUUGGGAGUAGCAGGAGAAACUCGGAGCUGGGGCCGUGAGAAGGGGAGGUCCCUGUCCUUCUCCUCCUUGGUGAUGGAGGGCUCCCUCCGCUCCACAACAGAGGAUUGAGCAUCA
B3: 52134009_52137203_1859_CDS_ENSG00000112118_ENST00000229854|human|control|control (ssRNA)
RNA: GGGAGUUCUACAGUCCGACGAUCUGUAACUGGAGAUGUCCUGGCGGUGUCUGAGCUCAUGCUAUCCUGGCUGCGCAGGCGUGAAUACUCUUCUGCAAUGUAGGUGGCCGACUCCUGUGUCAGGACAGGCUUGAUGAUUUUGGCCAACAGAGGAUUGAGCAUCA
B4: 43050054_43058615_114_3pUTR_ENSMUSG00000036002_ENSMUST00000107956|mouse|control|control (ssRNA)
RNA: GGGAGUUCUACAGUCCGACGAUCGCAGCUUCUGGGCUCAGUUGGACCCUGUAGUUCCGUGGGUCCUGUUGCACUUGAGAAGGUAGUGGAUUGGGAUAGUGACUGAGCAGCCCUCCUUGCAGCCUGGGCCUGCAAACCUCUCCCCAACAGAGGAUUGAGCAUCA
B5: chr15:80415083:80415084:+_ENSG00000086666_ENST00000558494|hu_hu|motif|central (ssRNA)
RNA: GGGAGUUCUACAGUCCGACGAUCAUCUUCUGUUUCAGGUACUGCUUUGUCCACAGAUGUACUGUCCAAUUGAGAAGAUGCGGCAGAUUCUGAUAAAAGUGACUGAUUUGAUACAGGGCUGGGCUGCAUAGAUGAAGAUGUAGACAACAGAGGAUUGAGCAUCA
B6: 60977291_60980254_566_CDS_ENSMUSG00000042506_ENSMUST00000041683|mouse|control|control (ssRNA)
RNA: GGGAGUUCUACAGUCCGACGAUCUUUAGUUGGUUCCCAAGUUGAAAACUUCUCUCCAACACCUUGCAUCUUCCAAGCCUUGCGCUGCUCCUCUUUGGCAAUGAUUUCUAUGUCUUUGUCAUAGAUGUAGUCCUGACACAAGAACAACAGAGGAUUGAGCAUCA

target: T1, UNK ZnF1-3; test: nsRBNS (natural sequence RNA bind-n-seq); RBNS binding buffer (assumed for nsRBNS): 25 mM Tris pH 7.5, 150 mM KCl, 3 mM MgCl2, 0.01% Triton X-100, 500 ug/ml BSA, 20 U/ml SUPERase-In, 4 C; UNK is unkempt and MSI1 is Musashi-1; names of the RNAs are library labels; protein concentration not given here; high values mean tight binding

First: B1
Second: B2
The binding signal of the first is higher: 0.951 enrichment R for the first, 0.829 enrichment R for the second.

First: B3
Second: B4
The binding signal of the first is lower: 0.523 enrichment R for the first, 0.927 enrichment R for the second.

Going from B5 to B6, the binding signal falls from 1.12 enrichment R to 0.563 enrichment R.
